# Experimental data from the supplement of paper PMC9446081.
# The whole screen tested about 39,000 compounds, of which about 220 (0.56%) showed activity. The list shows a part of the results.
# Tested on: Escherichia coli K-12 BW25113
# Test: relative growth (OD600 normalised to plate interquartile mean) (fraction); higher = less growth inhibition, active = 0.2 or less
# Conditions: 50 µM; LB; incubation time: overnight (16-24 h)
# 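Further: static incubation at 37 °C against the wild-type strain, values averaged over two biological replicates.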
row,SMILES,relative growth
1,C[C@H]1CCCCO[C@H](CN(C)S(=O)(=O)c2cccs2)[C@@H](C)CN([C@@H](C)CO)C(=O)c2cc(NS(=O)(=O)c3cn(C)cn3)ccc2O1,inactive: 1.01
2,C[C@H]1CN([C@@H](C)CO)C(=O)c2ccccc2-c2ccccc2CO[C@@H]1CN(C)S(=O)(=O)c1cn(C)cn1,inactive: 1
3,C[C@H](CO)N1C[C@H](C)[C@@H](CN(C)C(=O)c2ccncc2)OCCCC[C@H](C)Oc2ccc(NS(C)(=O)=O)cc2C1=O,inactive: 1
4,C[C@@H]1CN([C@@H](C)CO)C(=O)c2cc(NC(=O)Nc3ccc(F)cc3)ccc2O[C@@H](C)CCCCO[C@@H]1CN(C)C(=O)Cc1ccccc1,inactive: 1.02
5,C[C@@H]1CN([C@@H](C)CO)C(=O)c2cc(NC(=O)c3ccncc3)ccc2O[C@@H]1CN(C)Cc1ccc(C(=O)O)cc1,inactive: 0.991
6,C[C@H]1CN([C@@H](C)CO)C(=O)Cc2cc(NC(=O)Nc3ccc(F)cc3)ccc2O[C@H]1CN(C)CC1CCCCC1,inactive: 0.978
7,O=C(C[C@@H]1C=C[C@H](NC(=O)c2ccc3c(c2)OCO3)[C@@H](CO)O1)NCc1ccc(Oc2ccccc2)cc1,inactive: 1.01
8,C[C@H](CO)N1C[C@H](C)[C@H](CN(C)C(=O)c2ccccc2)OCCCC[C@H](C)Oc2ccc(NS(=O)(=O)c3ccc(F)cc3)cc2C1=O,inactive: 1.01
9,CN1CCN(C(=O)C[C@H]2CC[C@H]3[C@@H](COc4ccc(NC(=O)c5ccc(F)c(F)c5)cc4C(=O)N3C)O2)CC1,inactive: 0.998
10,C[C@@H](O)C#Cc1cnc2c(c1)C(=O)N([C@@H](C)CO)C[C@H](C)[C@H](CN(C)C(=O)Nc1ccc(C(F)(F)F)cc1)O2,inactive: 1.01
11,CNC(=O)CN1CCO[C@@H]2CN(Cc3nccs3)C[C@@H]21,inactive: 0.953
12,C[C@H](CO)N1C[C@H](C)[C@H](CN(C)S(=O)(=O)c2cn(C)cn2)Oc2ccc(NS(=O)(=O)c3ccccc3)cc2CC1=O,inactive: 0.975
13,CO[C@@H]1CN(C)C(=O)c2cc(NS(C)(=O)=O)ccc2OC[C@@H](C)N(C(=O)c2ccc3c(c2)OCO3)C[C@@H]1C,inactive: 0.96
14,NNC(=O)c1ccc(C(=O)NO)cc1,inactive: 1.02
15,C[C@H](CO)N1C[C@H](C)[C@H](CN(C)CC2CCCCC2)OCCCC[C@H](C)Oc2ccc(NC(=O)C3CCCCC3)cc2C1=O,inactive: 0.934
16,C[C@H]1CN([C@@H](C)CO)C(=O)Cc2cc(NC(=O)c3ccncc3)ccc2O[C@@H]1CN(C)S(=O)(=O)c1ccc(Cl)cc1,inactive: 0.99
17,C/C=C/c1cccc(-c2nc(C(=O)NCc3cccc(OC)c3)cc3c2[C@@H](CCO)N([S@](=O)C(C)(C)C)C3)c1,inactive: 1.01
18,CC(C)NC(=O)N(C)C[C@H]1Oc2ccc(NS(=O)(=O)c3ccc(Cl)cc3)cc2C(=O)N([C@@H](C)CO)C[C@H]1C,inactive: 0.976
19,Cc1noc(C)c1NC(=O)Nc1ccc2c(c1)C(=O)N([C@@H](C)CO)C[C@@H](C)[C@H](CN(C)Cc1ccc(Cl)c(Cl)c1)OCCCC[C@H](C)O2,inactive: 1.01

row,SMILES,relative growth
1,C[C@H]1CN([C@@H](C)CO)C(=O)c2cc(C#CC3(O)CCCC3)cnc2O[C@H]1CN(C)C(=O)C1CCCCC1,inactive: 0.982
2,COc1ccc([C@@H]([C@H](Cc2ccccc2)OC(C)=O)N2C[C@H]3[C@@H]([C@@H](O)c4ccccc4)ON(C)[C@H]3[C@@H]2Cc2ccccc2)cc1,inactive: 1.04
3,C[C@H](CO)N1C[C@H](C)[C@H](CN(C)C(=O)Nc2ccccc2)Oc2ccc(NC(=O)CCCCCC(=O)Nc3ccccc3N)cc2C1=O,inactive: 0.989
4,C[C@@H]1CN([C@@H](C)CO)C(=O)Cc2cc(NC(=O)Nc3cccc4ccccc34)ccc2O[C@@H]1CN(C)Cc1ccncc1,inactive: 1.02
5,C[C@H]1CN([C@@H](C)CO)C(=O)c2cccc(NC(=O)Nc3ccc(C(F)(F)F)cc3)c2O[C@@H]1CN(C)Cc1ccc(Cl)c(Cl)c1,inactive: 0.926
6,C[C@@H]1CCCCO[C@H](CN(C)C(=O)Nc2ccc3c(c2)OCO3)[C@@H](C)CN([C@H](C)CO)C(=O)c2cc(NC(=O)c3ccncc3)ccc2O1,inactive: 1
7,C[C@@H]1CN([C@H](C)CO)S(=O)(=O)c2ccc(Br)cc2O[C@@H]1CN(C)S(=O)(=O)c1ccc(F)cc1,inactive: 0.892
8,CN[C@@H]1[C@H](O[C@H]2[C@H](O[C@H]3[C@H](O)[C@@H](O)[C@H](NC(=N)N)[C@@H](O)[C@@H]3NC(=N)N)O[C@@H](C)[C@]2(O)C=O)O[C@@H](CO)[C@H](O)[C@H]1O,inactive: 0.888
9,C[C@H]1CN([C@@H](C)CO)C(=O)CCCn2cc(nn2)CO[C@H]1CN(C)S(=O)(=O)c1cn(C)cn1,inactive: 0.995
10,C[C@@H]1CN([C@H](C)CO)S(=O)(=O)c2ccc(C#Cc3ccccc3)cc2O[C@@H]1CN(C)S(=O)(=O)c1cn(C)cn1,inactive: 1.02
11,C[C@H](CO)N1C[C@H](C)[C@H](CN(C)Cc2ccc(C(=O)Nc3ccccc3N)cc2)Oc2ccc(NC(=O)Nc3ccc4c(c3)OCO4)cc2C1=O,inactive: 0.953
12,O=C(/C=N/O)Nc1ccccc1C(=O)O,inactive: 1
13,CNC[C@H]1Oc2ccc(NC(=O)CCN3CCOCC3)cc2CC(=O)N([C@H](C)CO)C[C@@H]1C,inactive: 1.03
14,C[C@@H]1CCCCO[C@H](CN(C)C(=O)CCCN(C)C)[C@@H](C)CN([C@H](C)CO)C(=O)c2cc(NC(=O)Nc3cccc4ccccc34)ccc2O1,inactive: 1
15,C[C@@H]1CN([C@H](C)CO)C(=O)c2cc(NC(=O)Nc3ccc(C(F)(F)F)cc3)ccc2O[C@H]1CN(C)Cc1ccc(C(=O)Nc2ccccc2N)cc1,inactive: 1.06
16,COc1ccc(S(=O)(=O)N(C)C[C@@H]2Oc3ccc(NC(=O)Cn4cnnn4)cc3CC(=O)N([C@H](C)CO)C[C@@H]2C)cc1,inactive: 1
17,C[C@@H]1CN([C@@H](C)CO)C(=O)c2cc(NC(=O)CCCCCC(=O)Nc3ccccc3N)ccc2O[C@@H]1CN(C)S(C)(=O)=O,inactive: 0.979
18,Cc1noc(C)c1S(=O)(=O)N(C)C[C@@H]1Oc2ccc(NC(=O)Nc3ccc4c(c3)OCO4)cc2C(=O)N([C@@H](C)CO)C[C@@H]1C,inactive: 1.02
19,COc1ccc(S(=O)(=O)Nc2ccc3c(c2)C(=O)N([C@H](C)CO)C[C@@H](C)[C@H](CN(C)Cc2ccc4c(c2)OCO4)OCCCC[C@@H](C)O3)cc1,inactive: 0.991

row,SMILES,relative growth
1,Cc1ccc(S(=O)(=O)N[C@H]2CC[C@@H](CCNC(=O)CN3CCOCC3)O[C@H]2CO)cc1,inactive: 0.996
2,COC(=O)Cn1c(=N)n(C)c2ccccc21,inactive: 0.979
3,C[C@@H]1CN([C@H](C)CO)C(=O)c2cc(NC(=O)NC3CCCCC3)ccc2O[C@@H](C)CCCCO[C@@H]1CN(C)Cc1ccncc1,inactive: 0.996
4,CCCCNc1ccccc1,inactive: 0.996
5,COc1ccc(S(=O)(=O)N2C[C@@H](O)COC[C@H]3O[C@@H](CC(=O)NCCCN(C)C)CC[C@@H]32)cc1,inactive: 1
6,COc1ccc(S(=O)(=O)N(C)C[C@H]2Oc3c(NC(=O)NC(C)C)cccc3C(=O)N([C@H](C)CO)C[C@@H]2C)cc1,inactive: 1.03
7,C[C@H](CO)N1C[C@H](C)[C@@H](CN(C)C(=O)Nc2cccc3ccccc23)Oc2c(NC(=O)CCCCCC(=O)Nc3ccccc3N)cccc2C1=O,inactive: 0.994
8,CC(C)NC(=O)Nc1ccc2c(c1)C(=O)N([C@H](C)CO)C[C@H](C)[C@@H](CN(C)Cc1ccc(Cl)c(Cl)c1)OCCCC[C@@H](C)O2,inactive: 0.985
9,Cc1noc(C)c1S(=O)(=O)Nc1ccc2c(c1)CC(=O)N([C@H](C)CO)C[C@@H](C)[C@@H](CN(C)S(=O)(=O)c1ccc(F)cc1)O2,inactive: 1.01
10,C[C@@H]1CN([C@H](C)CO)C(=O)Cc2cc(NC(=O)Nc3ccc(F)cc3)ccc2O[C@@H]1CN(C)Cc1ccc(C(F)(F)F)cc1,inactive: 1.03
11,C[C@H]1CN([C@@H](C)CO)C(=O)c2cccc(NS(=O)(=O)c3ccc(F)cc3)c2O[C@@H]1CN(C)Cc1ccc(Oc2ccccc2)cc1,inactive: 1
12,C[C@H]1CN([C@@H](C)CO)C(=O)Cc2cc(NC(=O)Nc3ccc(C(F)(F)F)cc3)ccc2O[C@@H]1CN(C)C(=O)NC1CCCCC1,inactive: 0.954
13,C[C@@H]1CN([C@H](C)CO)C(=O)Cc2cc(NC(=O)C3CCCCC3)ccc2O[C@H]1CN(C)C(=O)Nc1cccc2ccccc12,inactive: 0.984
14,Nc1ncnc2c1ncn2C1OC(COP(=O)(O)O)C(O)C1O (configuration not stated),inactive: 1.05
15,C[C@H]1CN([C@@H](C)CO)C(=O)c2cccc(NC(=O)Nc3ccc4c(c3)OCO4)c2O[C@@H]1CN(C)C(=O)Nc1ccc(C(F)(F)F)cc1,inactive: 0.947
16,C[C@@H]1CCCCO[C@H](CN(C)Cc2ccncc2)[C@@H](C)CN([C@H](C)CO)C(=O)c2cc(NS(C)(=O)=O)ccc2O1,inactive: 0.978
17,C[C@@H]1CCCCO[C@@H](CN(C)C(=O)Nc2cccc3ccccc23)[C@@H](C)CN([C@@H](C)CO)C(=O)c2cc(NC(=O)NC3CCCCC3)ccc2O1,inactive: 1.03
18,COc1ccc(-n2nc(C(=O)NCC(=O)N3CCN(c4ccccc4)CC3)c3ccccc3c2=O)c(OC)c1,inactive: 1.02
19,C[C@H]1CCCCO[C@H](CN(C)C(=O)Cc2ccccc2)[C@@H](C)CN([C@@H](C)CO)C(=O)c2cc(NC(=O)c3ccccc3)ccc2O1,inactive: 1.03
